# In the supplement of paper PMC10338343:
# ± gives the standard deviation. The entries are a selection whose mix differs from that of the whole data set.
# Test system: MIWI (PIWIL1) piRISC loaded with L1MC piRNA (30 nt)
# Assay: pre-steady-state target cleavage rate (min^-1); MIWI and MILI are mouse PIWI proteins and EfPiwi is from a freshwater sponge; tags in brackets are library labels; higher = faster piRNA-guided slicing of the target
# Details: guide: L1MC piRNA 5'p-UAACUAAAUACUAUGCAAGCUGUAGGUCCU
# How it was run: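 Cleave-'n-Seq: 1 nM active affinity-purified piRISC with one synthetic guide and 0.1 nM transcribed, DNA-blocked target RNA library were mixed, with or without 500 nM GTSF1 partner protein, in HEPES–potassium acetate buffer at 33 °C for 0–8 or 0–960 min. Uncleaved targets were sequenced and normalised to depth and to weakly complementary targets, three trials were pooled, and k3 was capped at 0.0001 min^-1. The pre-steady-state cleavage rate was fitted […].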
# [1] = auxiliary factor: 500 nM mouse GTSF1
# [2] = auxiliary factor: none (no GTSF1)
Sequence,pre-steady-state target cleavage rate [1],pre-steady-state target cleavage rate [2]
UCCACCUUCAGCUUGCUUAGUAUUUAGUUA,1.16 ± 0.037,0.0231 ± 0.005
UCCUGGAUGUCGUUGCAUAGUAUUUCGUUA,0.00995 ± 0.004,0.00392 ± 0.0028
UCCUGGAACAGCUUGGAUAGUAUUAAGUUA,0.43 ± 0.068,0.0159 ± 0.0041
UCCUGGAUGAGCUGGCAUAGUAUUUAGUUA,0.643 ± 0.04,0.0166 ± 0.0037
UCCUGGAACACCUUGCAUAGUAUUAAGUUA,0.293 ± 0.045,0.0072 ± 0.0024
UCGUCCUACAGCUUGCAUAGUAUUUUGUUA,0.738 ± 0.024,0.0434 ± 0.0067
UGGACCUUCAGCUUGCAUAGAAUUUAGUUA,0.367 ± 0.023,0.0249 ± 0.0085
UCCUGGAACAGCUAGGAUAGUAUUUAGUUA,0.906 ± 0.064,0.0058 ± 0.0023
AGGACCAACAGCUUGCAUACUAUUUAGUUA,0.371 ± 0.018,0.0379 ± 0.0075
UCCUGGAUGUGUCUUGCAUAGUAUUUAGUUA,0.243 ± 0.023,0.0211 ± 0.0053
AGGACCUAGAGGUUGCAUAGUAUUUAGUUA,0.546 ± 0.092,0.0249 ± 0.0039
UGGACCUAGAGCUUGCAUAGUAUUUACAAA,0.187 ± 0.029,0.00469 ± 0.0029
UCCUCCUACAGCUUGCAUUGUAUUAAGUUA,0.309 ± 0.026,0.00813 ± 0.0024
UCCUGGUACAGCUUGGAUAGUAUUAAGUUA,0.233 ± 0.047,0.0147 ± 0.0042
UCCACCAUGAGCUUGCAUAGUAUUUACAAA,0.155 ± 0.023,0.00278 ± 0.002
UCGACCUACAGCUUGCAAAGUAUUUAGAAA,0.396 ± 0.035,0.00573 ± 0.0027
UGGACCUACAGCUUGCAUAGUAAUUACUUA,0.123 ± 0.023,0.0123 ± 0.0032
UCGACCUCCAGCUUGCAUAGUAUUUAGUUA,1.17 ± 0.06,0.0635 ± 0.0099
UCCUGGAUGUCCUUGCAUAGUAUUUAGUGUA,0.0232 ± 0.0073,0.00487 ± 0.0027
UCCUGGAUCACCUUGCAUAGUAUUUAGAUA,0.124 ± 0.025,0.00504 ± 0.0021
UGGACCUACAGCAUGCAUUGUAUUUAGUUA,0.858 ± 0.058,0.0141 ± 0.0037
UCCUGGUAGAGCUUGCAUAGUAUUUAGAAA,0.323 ± 0.049,0.00473 ± 0.0032
UCCUGCAUCAGCUUGCAUAGUAUUUAGUAA,0.948 ± 0.058,0.0365 ± 0.0074
UCCUGGAACAGCUUGCAUAGUAUUUAGUAA,0.685 ± 0.046,0.0337 ± 0.0083
UGGACCUACAGCUUGCAUAGAAUUUAGUUA,0.438 ± 0.034,0.0253 ± 0.0075
UCCUGGUACAGCUUGCAUAGUAUUAACUUA,0.114 ± 0.028,0.00581 ± 0.0019
UCCUGGAUCAGCUUGCAUAGUGAUUUAGUUA,0.0192 ± 0.0052,0.00465 ± 0.0017

Sequence,pre-steady-state target cleavage rate [1],pre-steady-state target cleavage rate [2]
UCGACCUACAGACUUGCAUAGUAUUUAGUUA,1.06 ± 0.063,0.0588 ± 0.012
UCCUGGUACAGCUUGCAUAGUAUUUAGUCUA,0.0829 ± 0.026,0.00718 ± 0.0028
UCCACCUACAGCUUGCAUAGUAUUAUCUUA,0.3 ± 0.046,0.00377 ± 0.0028
UCCUGGAUCAGCUUGCAUAGUAUUGAGUUA,0.651 ± 0.064,0.0365 ± 0.0077
UGGACCUACAGCUAGCAUAGUAAUUAGUUA,0.89 ± 0.057,0.00994 ± 0.003
UCCACCUACAGCAUGGAUAGUAUUUAGUUA,1.34 ± 0.062,0.0231 ± 0.0039
UCGACCUACAGCUUGGAUAGAAUUUAGUUA,0.365 ± 0.044,0.0154 ± 0.0035
UGGACCUACAGCUUGCAUUGUAUUUAGUUA,0.957 ± 0.049,0.038 ± 0.0095
UCCUGGAUCAGCUUGCAUAGUAUCUUAGUUA,0.735 ± 0.032,0.01 ± 0.0035
UCGACCUACAGCAUGCAUAGUAAUUAGUUA,0.8 ± 0.042,0.00983 ± 0.0022
UCCUGGAACAGGAUGCAUAGUAUUUAGUUA,0.568 ± 0.036,0.00379 ± 0.0025
AGGACCUACAGCUUGCAUACUAUUUACUUA,0.236 ± 0.029,0.0261 ± 0.0052
UCCUGGAACAGCUUGCAUAGUAUUUCGUUA,0.215 ± 0.029,0.0162 ± 0.0036
UCCUCCUACACCUUGCAUAGUAUUUAGUAA,0.653 ± 0.09,0.0189 ± 0.0041
UCCUGGAUGAGCUUGCAUUGUAAUUAGUUA,0.0377 ± 0.0067,0.00671 ± 0.003
UCCUCCUACAGCAUGCUUAGUAUUUAGUUA,0.662 ± 0.052,0.00816 ± 0.0015
UCCUGCUACAGCAUUGCAUAGUAUUUAGUUA,0.941 ± 0.074,0.0182 ± 0.0044
UCCACCUUGAGCUUGCAUAGUAUUUACAAA,0.248 ± 0.038,0.00282 ± 0.0019
UCGACCUACUGCAUGCAUAGUAUUUAGUUA,1.33 ± 0.056,0.0324 ± 0.0055
UCCUGGUACAGCUUGCUUAGUAUUAAGUUA,0.386 ± 0.071,0.0178 ± 0.0056
UCGACCUUCAGCUUGCUUAGUAUUUAGUUA,1.33 ± 0.05,0.0363 ± 0.0088
AGCACCUACAGCUUGCAUAGUAUUUAGUUA,1.19 ± 0.16,0.246 ± 0.073
UCGACCUACAGGUUGCAUAGUAUUUAGUUA,1.14 ± 0.053,0.0468 ± 0.0088
UCCUGGAUGUGCUUGGAUACUAUUUAGUUA,0.031 ± 0.011,0.0033 ± 0.0029
UCCUCCUACAGCUUGCAUAGUAUUUUCUUA,0.299 ± 0.039,0.0157 ± 0.0056
UCCACCUACAGCUUGCGUAGUAUUUAGUUA,1.26 ± 0.049,0.0423 ± 0.0094
UCCUCCUAGAGGUUGCAUAGUAUUUAGUUA,0.632 ± 0.06,0.0102 ± 0.0017

Sequence,pre-steady-state target cleavage rate [1],pre-steady-state target cleavage rate [2]
AGGAGCUACAGCUUGCAUAGUAUUUUGUUA,0.891 ± 0.061,0.0672 ± 0.014
AGGUCCUACAGCAUGCAUAGUAUUUAGUUA,1.33 ± 0.062,0.107 ± 0.026
UCCACCUACAGCUUGCAUAGAAUUAAGUUA,0.267 ± 0.029,0.00783 ± 0.0026
UGGACCUACAGCUUGCAUAGUUUUAAGUUA,0.198 ± 0.016,0.0159 ± 0.0045
UCCUGGAUGUGCUUGCCUAGUAUUUAGUUA,0.189 ± 0.02,0.0235 ± 0.0064
UCCUGGUACAGCUUGCAUAUAUUUAGUUA,0.123 ± 0.021,0.00671 ± 0.0025
UCCAGGUACAGCUUGCAUAGUAUUUAGAAA,0.261 ± 0.032,0.00791 ± 0.002
UCCUCCUACACCUUGCAUAGUAUAUAGUUA,0.51 ± 0.055,0.0176 ± 0.0031
UCCUGCUACACCUUGCAUACUAUUUAGUUA,0.267 ± 0.05,0.0197 ± 0.0059
UCCUGGUACAGCUUGCAUAGUAAUUAGUUA,0.708 ± 0.077,0.0199 ± 0.0041
UCGACGAUCAGCUUGCAUAGUAUUUAGUUA,1.6 ± 0.047,0.0826 ± 0.017
UGGACCUAGAGCUUGCAUAGAAUUUAGUUA,0.308 ± 0.027,0.0167 ± 0.0055
UGGACCUACAGCUUGCAUAGUAUUCAGUUA,0.544 ± 0.042,0.0354 ± 0.0065
UCCACCUACAGCUUGCAUGGUAUUUAGUUA,1.3 ± 0.061,0.0488 ± 0.01
UCCAGCUACAGCUUGCAUAGUAUUUAGAUA,0.322 ± 0.042,0.012 ± 0.0026
UCCUGGAACUGCUUGCAUAGAAUUUAGUUA,0.192 ± 0.021,0.00872 ± 0.0032
UCCUGCUACUGCUUGCAUAGUAUUUUGUUA,0.558 ± 0.034,0.0284 ± 0.0045
UCCUGGUAGAGCUUGCAUAGUAUAUAGUUA,0.491 ± 0.062,0.0144 ± 0.0047
UCCUCCAACAGCUUGCAUAGUUUUUAGUUA,0.366 ± 0.024,0.0393 ± 0.0083
UCCUGGAUCACCUUGCAUAGUAUUUAGUAA,0.336 ± 0.051,0.0068 ± 0.0025
UCCUGGUUCAGCUUGCAUAGUAUUUUGUUA,0.611 ± 0.047,0.082 ± 0.018
UCCUCCUACUGGUUGCAUAGUAUUUAGUUA,0.952 ± 0.031,0.0303 ± 0.0054
UCCACCUACAGCUUGCAUACUAUUUAGAAA,0.113 ± 0.021,0.00399 ± 0.0022
UCCACCUACAGCUAGCAUAGUAUUUUGUUA,0.648 ± 0.043,0.00892 ± 0.0018
UCCUCCUACAGAUUGCAUAGUAUUUAGUUA,0.915 ± 0.052,0.0221 ± 0.0037
UCCUGCUACAGCUUGCAUAGAAAUUAGUUA,0.2 ± 0.021,0.00609 ± 0.0021
